The experiment addresses T1, GFP-TDP43CTF (Homo sapiens, UniProt Q13148).
T1 construct: expressed in transfected cells; host or cells: HEK293
As to the kind of experiment: Fluorescence microscopy of GFP-TDP43CTF aggregation (GFP foci) in transfected HEK293 cells. Particulars: GFP-TDP43CTF reporter, Table 12 (FIG. 8/9A). The class given is cell-based. As to the method:
Expression vector plasmids encoding various protein constructs were transfected into HEK293 cells with Lipofectamine 3000 transfection reagent (Thermo Fisher Scientific). Cell lysates were analyzed for expressed proteins using immunoblot assays. Samples of culture media were centrifuged to remove debris prior to analysis. Cells were lysed in a lysis buffer (10 mM Tris-HCl, pH 8.0, 150 mM NaCl, 10 mM EDTA, 2% SDS) containing 2 mM PMSF and protease cocktail (Complete Protease Inhibitor Cocktail; Sigma). After brief sonication, the samples were analyzed for expressed proteins using immunoblot assays. For immunoblot analysis, samples were boiled in an SDS-sample buffer and run on polyacrylamide electrophoresis. Thereafter, the separated protein bands were transferred to a PVDF membrane.
In some instances, aggregation of TDP-43 (full-length of C-terminal fragment) GFP reporter constructs (described below) were detected in vivo using fluorescence microscopy. Cultured cells expressing the reporter constructs as well as the fusion protein comprising the J domain and TDP-43-binding domain were washed with PBS and fixed with 4% paraformaldehyde in PBS for 5 minutes. After three 5-min washes with PBS, nuclear DNA was stained with DAPI. Percentage of cells containing TDP-43 (GFP foci) in transfected cells was counted. […]

B1: 9 (protein)
chain: MGTMGKDYYQTLGLARGASDEEIKRAYRRQALRYHPDKNKEPGAEEKFKEIAEAYDVLSDPRKREIFDRYGEEGLKGSGPSGGSGGGANGTSFSYTFHGDPHAMFAEFFGGRNPFDTFFGQRNGEEGMDIDDPFSGFPMGMGGFTNVNFGRSRSAQEPARKKQ[about 150 residues not listed]PERIPQTSRTVLEQVLPI
Regarding B1, the “% Aggregation (normalized to GFP-TDP43CTF alone)” value turned out to be 56.31%.

B2: 14 (protein)
chain: MGKDYYQTLGLARGASDEEIKRAYRRQALRYHPDKNKEPGAEEKFKEIAEAYDVLSDPRKREIFDRYGEEGLKGSDIGGGGSGGGGSGGGGSGGGGSAAASNWKWWPGIFDGLESNWKWWPGIFDSRDYKDDDDK
Regarding B2, the “% Aggregation (normalized to GFP-TDP43CTF alone)” value is reported as 28.55%.

The values above are taken from patent publication US20240327477A1, “COMPOSITIONS AND METHODS FOR THE TREATMENT OF TDP-43 PROTEINOPATHIES” (SOLA BIOSCIENCES LLC, priority 2020, published 2024).
